Measurements as given in PubChem BioAssay AID588342 (National Center for Advancing Translational Sciences (NCATS), 2011).
The whole screen tested about 360,000 compounds, of which about 25,000 (6.9%) were called active. Inconclusive means that the source gave no clear call. Such entries were picked first, then a sample of the others. Calls follow the shape of the dose curve; as a rule, active = well fitted inhibition curve with a large enough effect; inconclusive = small, poorly fitted or top-dose-only effect; inactive = flat fitted curve, though single readings scatter. Where the call is inconclusive, the potency comes from a doubtful curve fit.

molecular target: Luciferin 4-monooxygenase (Photinus pyralis) (UniProt P08659); assay: qHTS profiling assay for firefly luciferase inhibitor/activator using purifed enzyme and Km concentrations of substrates (counterscreen for miR-21 project); settings: purified FLuc, luminescence inhibition; series mostly up to 57.5 µM; also: nearly all actives have a fitted effect of over 55% in size
Outline: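 Biochemical qHTS of compounds, final roughly 60 µM downward over six points, against 10 nM purified firefly luciferase using Km concentrations of substrates (10 uM D-luciferin, 10 uM ATP) in Tris acetate pH 7.5 buffer; luminescence output.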
Potency is read from the fitted curve at half-maximal effect; tags tell the direction and shape of the fitted curve.

UniProt P08659, sequence (P08659 whole entry, looked up): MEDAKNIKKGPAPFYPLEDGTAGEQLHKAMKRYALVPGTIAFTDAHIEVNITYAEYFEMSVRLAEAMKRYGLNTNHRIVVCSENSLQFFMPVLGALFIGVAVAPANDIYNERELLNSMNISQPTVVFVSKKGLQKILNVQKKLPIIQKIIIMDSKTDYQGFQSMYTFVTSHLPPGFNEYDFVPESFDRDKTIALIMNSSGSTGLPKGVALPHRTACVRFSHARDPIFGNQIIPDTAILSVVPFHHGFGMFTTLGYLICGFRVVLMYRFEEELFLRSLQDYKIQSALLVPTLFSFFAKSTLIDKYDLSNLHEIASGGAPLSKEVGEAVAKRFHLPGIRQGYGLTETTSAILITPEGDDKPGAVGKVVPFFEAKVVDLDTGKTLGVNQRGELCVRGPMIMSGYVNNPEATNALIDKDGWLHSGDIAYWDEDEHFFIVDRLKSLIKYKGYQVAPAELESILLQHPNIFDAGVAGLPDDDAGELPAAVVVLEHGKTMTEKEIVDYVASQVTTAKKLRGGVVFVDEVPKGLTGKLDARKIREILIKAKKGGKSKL

SMILES	Potency
COc1ccc(-c2csc(NC(=O)CN3C(=O)NC4(CCCC4)C3=O)n2)c(OC)c1	inconclusive: 23.9 µM [inhibitor, partial curve, poor fit]
Cn1c(=O)n(Cc2ccccc2Cl)c(=O)c2c1[nH]c(=S)n2C	inconclusive: 42.6 µM [inhibitor, partial curve, poor fit]
COc1ccc(Nc2nc3ccc(Cl)cc3n3nnnc23)cc1OC	inconclusive: 5.36 µM [inhibitor, partial curve, poor fit]
O=C(O)c1ccc(N2CCc3ccccc32)c([N+](=O)[O-])c1	inconclusive: 37.9 µM [inhibitor, partial curve, poor fit]
COc1ccc(OC)c(NS(=O)(=O)c2c(C(=O)N3CCCCCC3)c(C)n(C)c2C)c1	inactive
O=S(=O)(NNc1ncc(C(F)(F)F)cc1Cl)c1ccccc1	inconclusive: 23.9 µM [inhibitor, partial curve, poor fit]
COc1ccc(Nc2nc(Nc3ccc(OC)cc3)nc(-n3[nH]c(=O)c(C)c3C)n2)cc1	inactive
Cc1cccc(N2CCN(S(=O)(=O)c3ccc4oc(=O)c5ncn(C)c5c4c3)CC2)c1C	inactive
O=C(O)c1ccc(Nc2cnc3ccccc3n2)cc1	active: 13.5 µM
Cc1c(C)n(Cc2ccccc2)c2ccc(C(=O)NCc3ccc(OC(C)C)cc3)cc12	inactive
CC(C)N1CCC(NC(=O)Nc2ccc3c(c2)OCO3)CC1	inconclusive: 30.1 µM [inhibitor, partial curve, poor fit]
CCc1ccc(C(=O)CSc2n[nH]c(C)n2)cc1	active: 21.3 µM
O=C1C(Cl)=C(Nc2ccccc2O)C(=O)N1c1ccccc1	inconclusive: 15.1 µM [inhibitor, partial curve]
CCOc1ccc(C(=O)NNC(=O)CNC(=O)c2ccc(C)s2)cc1OC	inactive
O=C(CNC(=O)c1ccc([N+](=O)[O-])cc1)c1ccccc1	inconclusive: 9.53 µM [inhibitor, partial curve, poor fit]
c1cncc(-c2nc(NCc3ccc4c(c3)OCO4)c3ccccc3n2)c1	inconclusive: 37.9 µM [inhibitor, partial curve, poor fit]
COc1ccc2c(c1)sc1nc(-c3ccccc3)cn12	active: 0.0338 µM
COc1ccc(C(=O)c2c(C)oc3cc([N+](=O)[O-])c(O)c([N+](=O)[O-])c23)cc1	inconclusive: 26.9 µM [inhibitor, partial curve, poor fit]
CC(C)OCCCNC(=S)Nc1ccc(S(N)(=O)=O)cc1	inconclusive: 6.01 µM [inhibitor, partial curve, poor fit]
COC(=O)C(Cc1csc2ccc(Cl)cc12)NC(=O)c1ccc(Cl)cc1 (configuration not stated)	inconclusive: 12 µM [inhibitor, partial curve, poor fit]
O=C(O)CCC(=O)c1ccc2c(c1)CCCC2	inconclusive: 13.5 µM [inhibitor, partial curve]
CCN(Cc1ccccc1)C(=O)Cn1c(=O)n(-c2ccc(Cl)c(Cl)c2)c(=O)c2c(C)c(C(=O)N(C)C)sc21	inactive
OCc1nc2nc(Cl)c(Cl)nc2[nH]1	inactive
CCOC(=O)C1CCCN(C(=O)CSc2ccccc2)C1 (configuration not stated)	inconclusive: 37.9 µM [inhibitor, partial curve, poor fit]

SMILES	Potency
CCOC(=O)c1c(-c2ccc(C)s2)csc1NC(=O)c1cccs1	inactive
COc1cccc(C2CC(c3c(-c4ccccc4)c4cc(Cl)ccc4[nH]c3=O)=NN2S(C)(=O)=O)c1OC (configuration not stated)	inactive
O=C(CSc1nc2ccccc2c2c1CCCC2)N1CCOCC1	inactive
CCOc1cc(/C=C2\NC(=O)NC2=O)cc([N+](=O)[O-])c1O	inactive
O=C(NCCOc1ccccc1Cl)c1cc(F)c(F)cc1Cl	active: 5.36 µM
COc1ccc(Nc2cc(Nc3ccc(OC)cc3)ncn2)cc1	inactive
CCn1c(SC(C)C)nnc1-c1cc(-c2ccccc2)sc1N	inconclusive: 33.8 µM [inhibitor, partial curve, poor fit]
COC(=O)c1ccc(C2Nc3cccc4cccc(c34)N2)cc1	inconclusive: 21.3 µM [inhibitor, partial curve]
Cc1ccc(NC(=O)c2ccc(Nc3c([N+](=O)[O-])cc([N+](=O)[O-])cc3[N+](=O)[O-])cc2)cc1	inconclusive: 9.53 µM [inhibitor, partial curve, poor fit]
CCOC(=O)c1csc(N)n1	active: 0.849 µM
Cc1ccc(-n2ncc3c(Nc4cccc(C(F)(F)F)c4)ncnc32)cc1C	active: 15.1 µM
Cc1cc(C)cc(NC(=O)COCc2cc(-c3ccc4c(c3)OCO4)on2)c1	inconclusive: 23.9 µM [inhibitor, single point]
O=S(=O)(c1cccc(Br)c1)N1CCN(CCc2ccccc2)CC1	inactive
N/C(=N\OC(=O)c1ccccc1F)c1cccc([N+](=O)[O-])c1	active: 3.38 µM
CCOC(=O)c1ccc(NS(=O)(=O)c2ccc(Cl)nc2)cc1	inconclusive: 37.9 µM [inhibitor, partial curve, poor fit]
O=C(CCc1nc2ccccc2s1)OCC(=O)c1ccc[nH]1	inconclusive: 23.9 µM [inhibitor, single point]
COc1ccc(/C=N/NC(=O)c2ccc3nc[nH]c3c2)cc1OC	inconclusive: 37.9 µM [inhibitor, single point]
COc1ccc2occ(C(=O)c3ccc(N)cc3)c2c1	active: 6.01 µM
CC(C)Oc1ccc(/C=N/NC(=O)c2nnn(-c3nonc3N)c2CN(C)c2ccccc2)cc1	inconclusive: 21.3 µM [inhibitor, partial curve]
COC(=O)Nc1ccc(Oc2ccccc2)cc1	inconclusive: 23.9 µM [inhibitor, partial curve]
Cc1ccc(C)c(-n2nnc(C(=O)Nc3ccc(Br)cc3)c2C)c1	inactive
COc1ccc(/C=N/NC(=O)CN2CCCCCCC2)c(C)c1C	inactive
O=C(NC(=S)Nc1ccc(Cc2ccncc2)cc1)c1ccccc1F	inconclusive: 37.9 µM [inhibitor, single point]
O=C(CC1Sc2ccccc2NC1=O)OCc1cc(=O)oc2cc(O)ccc12 (configuration not stated)	inconclusive: 37.9 µM [inhibitor, partial curve, poor fit]

SMILES	Potency
Cc1ccc(-n2nnc(-c3cccnc3Cl)n2)cc1	active: 0.757 µM
CCOc1cccc(C(=O)NC(=S)Nc2cccnc2)c1	inconclusive: 26.9 µM [inhibitor, single point]
O=C(Nc1cc(Cl)cc(Cl)c1)c1cc(S(=O)(=O)N2CCC3(CC2)OCCO3)ccc1F	inactive
COc1ccc(-c2ccc(-c3noc(-c4cccc(OC)c4)n3)c(OC)n2)cc1	active: 7.57 µM
COc1cccc(NC(=O)Cc2csc(COc3cccc(C)c3)n2)c1	inconclusive: 26.9 µM [inhibitor, single point]
COc1ccc(NC(=O)CSc2nc(C(C)C)nc3c2c(=O)n(C)c(=O)n3C)c(OC)c1	inactive
COc1ccc(CC2=CC(=O)c3ccccc3C2=O)cc1	active: 2.39 µM
O=C(CCCOc1ccc(Cl)cc1Cl)NCCc1nnc2ccccn12	inconclusive: 23.9 µM [inhibitor, partial curve]
COc1ccc(-c2cc(C(=O)NCc3ccco3)c3ccccc3n2)c(OC)c1	inconclusive: 26.9 µM [inhibitor, partial curve, poor fit]
COc1ccc(NC2CCCN(C(=O)CN3CCOC3=O)C2)cc1 (configuration not stated)	active: 10.7 µM
C=C1C[C@H](O)[C@@H]2[C@H](OC(=O)[C@H]2C)[C@H]2[C@H](C)[C@@H](O)C[C@@H]12	inactive
CC/C(=N\NC(=O)c1ccoc1C)c1ccc(C)o1	inconclusive: 23.9 µM [inhibitor, partial curve]
Cc1ccc(-c2ccc(CCC(=O)O)n2-c2cccc(C)c2C)cc1	inconclusive: 12 µM [inhibitor, partial curve]
O=C1CC(NS(=O)(=O)c2cccnc2)CN1c1ccc(Cl)cc1 (configuration not stated)	inactive
O=C(Nc1ccc(F)cc1)c1csc(Cc2ccccc2)n1	active: 5.36 µM
COc1cc(OC)c(C2CC(=O)N3CN(C)CSC3=C2C#N)cc1OC (configuration not stated)	inconclusive: 21.3 µM [inhibitor, partial curve, poor fit]
CCOc1ccc(Br)cc1S(=O)(=O)Nc1cccc(-c2ccc(OC)nn2)c1	inconclusive: 10.7 µM [inhibitor, partial curve, poor fit]
COc1ccc(-c2nc(NCCCN(C)C)c3ccccc3n2)cc1	inconclusive: 37.9 µM [inhibitor, partial curve, poor fit]
CSc1nc2cc(Oc3cccc(Cl)c3Cl)c(Cl)cc2[nH]1	inconclusive: 37.9 µM [inhibitor, partial curve, poor fit]
O=C(NCCc1csc(-c2ccc(F)cc2)n1)c1cccc(F)c1	inconclusive: 26.9 µM [inhibitor, partial curve, poor fit]
O=C(Nc1ccc2nc(-c3ccco3)[nH]c2c1)c1cccs1	active: 2.69 µM
CC12CC(c3ccccc3O1)N(C(=O)c1ccco1)C(=S)N2c1ccc(F)cc1 (configuration not stated)	inactive
COc1ccc(OC)c2c1C(=O)c1ccccc1C2=O	inactive
O=C(CSc1ccc([N+](=O)[O-])cn1)Nc1ccc2c(c1)OCCO2	inconclusive: 26.9 µM [inhibitor, single point]
